The text below walks through data of publication PMC2719694.

Sequences of proteins named here, by UniProt entry; tags and fusion partners are left off.
UniProt P37383: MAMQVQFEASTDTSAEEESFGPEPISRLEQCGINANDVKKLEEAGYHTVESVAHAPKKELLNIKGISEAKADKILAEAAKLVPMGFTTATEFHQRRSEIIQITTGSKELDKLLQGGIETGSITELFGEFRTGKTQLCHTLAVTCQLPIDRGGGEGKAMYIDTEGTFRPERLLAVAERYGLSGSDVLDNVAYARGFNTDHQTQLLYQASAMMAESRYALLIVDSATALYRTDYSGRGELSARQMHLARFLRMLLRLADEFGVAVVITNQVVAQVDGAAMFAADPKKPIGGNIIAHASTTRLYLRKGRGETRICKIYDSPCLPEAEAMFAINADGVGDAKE

Substitutions are numbered along the chain they refer to. Results are given in words; binding and its absence hold for the method and conditions named. In cells and extracts the contact can be indirect. Some entries that bind do so weakly or less than the wild type. Tags and fused reporters may be left off the sequences shown.

The target of test [1] is T1, myc-tagged GgBrca2 residues 3152-3398, P3240L (Gallus gallus) (UniProt Q8QFV6).
T1 sequence: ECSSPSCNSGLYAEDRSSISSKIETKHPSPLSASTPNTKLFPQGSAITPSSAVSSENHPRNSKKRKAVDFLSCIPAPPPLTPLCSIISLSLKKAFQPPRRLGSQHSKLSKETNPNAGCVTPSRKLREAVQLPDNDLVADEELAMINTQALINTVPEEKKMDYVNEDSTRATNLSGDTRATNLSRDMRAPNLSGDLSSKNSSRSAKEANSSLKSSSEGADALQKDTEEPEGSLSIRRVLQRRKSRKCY
As to the kind of experiment: co-IP; immunoprecipitation of the myc-tagged GgBrca2 fragment from extracts of transfected DT40 cells arrested in mitosis with nocodazole (120 ng/ml overnight), Western blot for GgRad51 and myc. In general terms: In western blotting, separated proteins are transferred to a membrane and probed.

In test [2] the target is T2, myc-tagged GgBrca2 residues 3152-3398, S3239A (Gallus gallus) (UniProt Q8QFV6).
T2 sequence: T1 sequence with S88A, L89P
The test is described as above.

The target in test [3] is T3, myc-tagged GgBrca2 residues 3152-3398, S3239E (Gallus gallus) (UniProt Q8QFV6).
T3 sequence: T1 sequence with S88E, L89P
The test is described as above.

For test [4], the target named is T4, myc-tagged GgBrca2 residues 3152-3398, T3232A (Gallus gallus) (UniProt Q8QFV6).
T4 sequence: T1 sequence with T81A, L89P
The test is described as above.

Test [5] deals with T1, myc-tagged GgBrca2 residues 3152-3398, P3240L (Gallus gallus). As to the kind of experiment: co-IP; immunoprecipitation of the myc-tagged GgBrca2 fragment from extracts of transfected DT40 cells, Western blot for GgRad51 and myc; asynchronous (interphase) cells, also with roscovitine 30-120 min (50 uM), and nocodazole-arrested cells treated with roscovitine.
Test [6] has as its target T2, myc-tagged GgBrca2 residues 3152-3398, S3239A (Gallus gallus). Described as above.
Test [7] deals with T3, myc-tagged GgBrca2 residues 3152-3398, S3239E (Gallus gallus). Described as above.
Test [8] concerns the target T4, myc-tagged GgBrca2 residues 3152-3398, T3232A (Gallus gallus). Described as above.
The target in test [9] is T5, myc-tagged GgBrca2 residues 3152-3398, T3232E (Gallus gallus) (UniProt Q8QFV6).
T5 sequence: T1 sequence with T81E, L89P
The description is as above.

The target in test [10] is T6, myc-tagged GgBrca2 residues 3152-3398, wild type (Gallus gallus) (UniProt Q8QFV6).
T6 sequence: T1 sequence with L89P
The test is described as above.

Test [11] concerns the target T6, myc-tagged GgBrca2 residues 3152-3398, wild type (Gallus gallus). As to the kind of experiment: condition: only nocodazole-arrested cells (120 ng/ml nocodazole overnight); co-IP; immunoprecipitation of the myc-tagged GgBrca2 fragment from extracts of transfected DT40 cells arrested in mitosis with nocodazole (120 ng/ml overnight), Western blot for GgRad51 and myc.

On to “Gallus gallus Rad51 (from UniProt P37383 1-339)”, for which the binding entry was “no binding” in [1]; “no binding” in test [2]; “no binding” in [3]; “binds” in test [4]; “no binding” in test [5]; “no binding” in test [6]. Besides, the binding entry in [7] is reported as “no binding”; in test [8] it was “binds”; in test [9], “no binding”; in test [10], “binds”; in test [11] it was “no binding”.
